Data taken from the supplement of paper PMC4166925.
± gives the standard deviation of the averaged measurements. Over roughly 33,000 sequences, “E-score (dimensionless, -0.5 to 0.5)” has its median near -0.049; the highest 2% begin near 0.37. Some of the results follow.

system: T1, PmTbr T-box DNA-binding domain (GST fusion); experiment: PBM E-score of 8-mer (E-score (dimensionless, -0.5 to 0.5)); Tbr is Tbrain of the sea star Patiria miniata (Pm) or the sea urchin Strongylocentrotus purpuratus (Sp); higher = stronger binding preference; most listed sequences are background and not binding sites; details: the construct has about 5 more residues each side
T1 sequence: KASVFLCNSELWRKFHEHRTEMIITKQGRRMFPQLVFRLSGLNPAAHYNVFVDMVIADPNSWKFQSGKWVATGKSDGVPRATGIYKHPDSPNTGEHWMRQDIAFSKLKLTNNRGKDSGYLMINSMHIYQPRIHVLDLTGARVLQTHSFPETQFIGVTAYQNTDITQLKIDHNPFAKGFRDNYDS
Outline: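 Primer extension turned Universal Agilent oligonucleotide arrays double-stranded. They were incubated with 200 nM protein in PBS (pH 7.5); the protein was a GST-fused Tbr T-box DNA-binding domain expressed in BL21 E. coli at 20 °C and purified on glutathione. Every ungapped 8-mer was scored from the scanned, quantified probe intensities, and the Universal PBM Analysis Suite gave each an enrichment E-score averaged over duplicate arrays.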

Sequence	PBM E-score of 8-mer
CGTCAGAG	-0.00987 ± 0.14
ATGTCCCG	-0.244 ± 0.035
GGGCCTAC	-0.254 ± 0.029
CACTGGCG	0.158 ± 0.072
CCTACAAA	-0.14 ± 0.03
GCACCACC	0.192 ± 0.11
ACCCGAGA	-0.101 ± 0.081
AGACCCGG	-0.263 ± 0.034
CGGTGAGA	0.236 ± 0.0071
ACTGTGCT	0.118 ± 0.036
CAATACAC	0.134 ± 0.018
AAGCCGAA	-0.207 ± 0.039
ACTGACTA	-0.169 ± 0.016
GTTTAATA	-0.127 ± 0.015
ACCTCTAT	0.239 ± 0.081
CCGTACCC	-0.342 ± 0.076
CGCCGCCA	0.0118 ± 0.12
AAAACCTA	-0.209 ± 0.086
AAGTAAAA	-0.207 ± 0.0068
AATCCAAG	-0.178 ± 0.0028
TCCGGACA	-0.007 ± 0.055
TACCTATA	-0.137 ± 0.041

Sequence	PBM E-score of 8-mer
GCTCGTAA	-0.0733 ± 0.036
GCCACTAA	0.153 ± 0.019
ACTCGGCA	0.0801 ± 0.035
GCACACAA	-0.08 ± 0.061
AAGTGTCA	0.4726 ± 0.0035
CAAATGTG	0.296 ± 0.022
AGGGAGAT	-0.0741 ± 0.034
AAGTGAAC	-0.0437 ± 0.14
GTGCTCCA	-0.0568 ± 0.025
ACAAAAGC	0.00787 ± 0.035
ATGATACC	-0.113 ± 0.018
AACGCTGC	0.128 ± 0.017
GTAGGTGA	0.397 ± 0.02
CGTAAGCC	-0.222 ± 0.063
TCAGATGA	-0.136 ± 0.035
AGTAATAG	-0.00931 ± 0.014
AGGGGCCA	-0.1394 ± 0.00072
CGATGGCC	-0.102 ± 0.053
CTCGACTA	-0.163 ± 0.029
CAGGGCAC	-0.0605 ± 0.021
GCAGTACC	0.0599 ± 0.05
ATCTGTAG	-0.14 ± 0.043

Sequence	PBM E-score of 8-mer
TACACGGA	0.088 ± 0.037
GCCACAGC	-0.03973 ± 5.7e-05
AAGCGACG	0.137 ± 0.019
AACTCAAA	-0.0783 ± 0.034
TATCTAAA	-0.232 ± 0.1
AAAAAGCC	-0.211 ± 0.053
AGATTGTA	-0.0747 ± 0.059
ATGGGGAG	-0.19 ± 0.02
GGTTTCGA	-0.114 ± 0.029
CCGGTAAG	-0.135 ± 0.01
GCGCTCTA	0.102 ± 0.063
TAACGCGA	0.318 ± 0.039
GATCGCGA	0.303 ± 0.057
TGACGAAA	0.186 ± 0.08
CTGTACAA	-0.103 ± 0.0019
TACGGAGA	-0.103 ± 0.036
TAGAAGAA	-0.381 ± 0.0066
CGCCATAC	0.031 ± 0.022
AGTTTTAT	-0.189 ± 0.078
CCGAAGTA	-0.302 ± 0.021
CAAATAAC	-0.0624 ± 0.062
AATCAACT	-0.0611 ± 0.019

Sequence	PBM E-score of 8-mer
CAATGCCA	-0.0317 ± 0.036
CGTTCTTA	-0.196 ± 0.038
ACATCGCC	-0.00823 ± 0.095
AACCATTC	-0.0787 ± 0.013
CGACATAG	-0.00473 ± 0.032
TGGCATAA	-0.0902 ± 0.022
GGGGCGAC	0.114 ± 0.026
CGTACGCA	-0.0213 ± 0.11
TCCTGCAA	-0.0964 ± 0.0022
CTGGAGAC	-0.0746 ± 0.0036
TGACTGCA	0.129 ± 0.067
AAAGGACG	-0.189 ± 0.01
AAAAATTG	-0.0785 ± 0.052
TGCATCAA	-0.101 ± 0.07
ATATAAAG	-0.0621 ± 0.091
GGCGCATA	-0.116 ± 0.044
CATGAGAC	-0.161 ± 0.036
CTCTGAAG	-0.199 ± 0.0073
CAAGACCG	-0.0871 ± 0.017
ACTGCCTC	-0.266 ± 0.036
